Experimental data: PubChem BioAssay AID1508642 (National Center for Advancing Translational Sciences (NCATS), 2021)
The whole screen tested about 43,000 compounds, of which about 200 (0.47%) were called active. Inconclusive results (about 12%) are left out. The call rests on the fitted dose curve; in most records, active means well fitted cell-killing curve with a large enough effect; inconclusive means small, poorly fitted or top-dose-only effect, or effect the other way; inactive means flat fitted curve, though single readings scatter. The list shows a part of the results.
On the % scale 0 is the no-effect control and ±100 the full control effect.

Assay: Cell viability qHTS assay in S16 Pmp22-F2sN cells; further: nearly all actives have a fitted effect of over 65% in size
Settings: S16 Pmp22-F2sN Schwann cells viability, CellTiter-Glo, 24 h; series mostly up to 57.5 µM; activity change, negative = cytotoxicity: at the top concentration
In short: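 Used to flag compounds lowering reporter output through toxicity, this quantitative HTS measures ATP-based CellTiter-Glo luminescence in S16 Pmp22-F2sN Schwann cells after 24 h compound exposure at 37C.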
For COc1ccc(NC(=O)c2oc3ccccc3c2NC(=O)Cc2coc3cc(C)ccc23)cc1, the “activity change, negative = cytotoxicity” value was inactive: 2.49%. In the case of COc1ccc(C)cc1NC(=O)CCNC(=O)Cn1ccc2ccccc2c1=O, the “activity change, negative = cytotoxicity” value is reported as inactive: 6.8%. In the case of COCCCn1c(=N)c(C(=O)NCc2cccnc2)cc2c(=O)n3cccc(C)c3nc21, the “activity change, negative = cytotoxicity” value is reported as inactive: -1.21%. With CCOC(=O)c1c(C)[nH]c(CCC(=O)NCc2cccc(C)c2)c1C the “activity change, negative = cytotoxicity” value was inactive: 7.24%. With Cc1ccc(CNC(=O)CN2C(=O)CSc3c2c(C)nn3-c2ccccc2)cc1 the “activity change, negative = cytotoxicity” value was inactive: 6.46%. In the case of Cn1c(-c2ccccc2)cnc1NCc1ccccc1O, the “activity change, negative = cytotoxicity” value is reported as inactive: 4.41%. In the case of O=C(NCc1ccccc1Br)c1ccc2c(c1)nc1n2CCOC1, the “activity change, negative = cytotoxicity” value is reported as inactive: 12.8%. For O=C(CCC1N=C2c3ccccc3N=C(SCc3ccccc3F)N2C1=O)NCc1ccccc1 (stereo not given), the “activity change, negative = cytotoxicity” value was inactive: -29.2%. In the case of CCCNC(=O)COCc1cc(-c2ccc(F)cc2)on1, the “activity change, negative = cytotoxicity” value is reported as inactive: -0.902%. For COc1ccc(C2=C(C)C(=NCCCN3CCN(c4cc(Cl)ccc4C)CC3)NS2(=O)=O)cc1, the “activity change, negative = cytotoxicity” value was inactive: -15.5%. With Cc1ccc(NC(=O)Cn2cc(S(=O)(=O)Cc3cccc(Cl)c3)c3ccccc32)cc1C the “activity change, negative = cytotoxicity” value was inactive: 5.22%. With COc1ccc(-n2ncc(C(=O)Nc3ccc4c(c3)OCO4)c2C2CCN(C(=O)OC(C)(C)C)CC2)cc1 the “activity change, negative = cytotoxicity” value was inactive: -29.1%. For COc1ccc2oc(-c3ccc(C)c(NC(=O)c4ccc5c(c4)OCCO5)c3)nc2c1, the “activity change, negative = cytotoxicity” value was inactive: 5.84%. With CCN1CCN(CCCNC(=O)c2cnn(-c3ccccc3Cl)c2C2CCN(C(=O)OC(C)(C)C)CC2)CC1 the “activity change, negative = cytotoxicity” value was inactive: 0.102%. For Cc1nn(C)c2c1c(-c1ccccc1)cc(=O)n2Cc1ccccc1C#N, the “activity change, negative = cytotoxicity” value was inactive: -12.2%. For Cc1cc(OCC(=O)Nc2c(C(=O)c3ccccc3)oc3ccccc23)cc(C)c1Cl, the “activity change, negative = cytotoxicity” value was inactive: 8.47%. In the case of O=C(c1ccccc1)c1cn(Cc2ccc(F)cc2)c2ccccc2c1=O, the “activity change, negative = cytotoxicity” value is reported as inactive: -19.2%. For CCCCc1nn2c(=O)cc(COC(=O)c3cccc(Cl)c3)nc2s1, the “activity change, negative = cytotoxicity” value was inactive: -27.1%. With Cc1cccc(C)c1NC(=O)Cn1nnc(C(=O)Nc2c(C)cccc2C)c1N the “activity change, negative = cytotoxicity” value was inactive: -3.05%. For Cc1cc(F)ccc1NC(=O)C1CCN(C(=O)c2cnn(-c3ccccc3)c2-n2cccc2)CC1, the “activity change, negative = cytotoxicity” value was inactive: -3.08%. For CC(=O)n1nc(-c2cccnc2)nc1NCc1ccc(F)cc1, the “activity change, negative = cytotoxicity” value was inactive: 1.14%. In the case of CCOc1ccc(NC(=O)c2c(NCc3ccc(C)o3)sc3c2CCCCC3)cc1, the “activity change, negative = cytotoxicity” value is reported as inactive: -14.6%. In the case of CCn1cc(C(=O)OCC(=O)Nc2cc(OC)cc(OC)c2)c(=O)c2ccc(C)nc21, the “activity change, negative = cytotoxicity” value is reported as inactive: 0.22%. For O=C1c2oc3ccccc3c(=O)c2C(c2ccc(O)cc2)N1Cc1ccc2c(c1)OCO2 (stereo not given), the “activity change, negative = cytotoxicity” value was inactive: 16.2%. With O=C(c1ccc(Cl)cc1)N1CCC(c2nc3ccccc3o2)CC1 the “activity change, negative = cytotoxicity” value was inactive: -0.689%. With COc1ccccc1-c1noc(-c2ccc(N3CCN(C)CC3)c([N+](=O)[O-])c2)n1 the “activity change, negative = cytotoxicity” value was inactive: -6.29%. In the case of Cc1ccc(-c2ccc(=O)n(CC(=O)NCCc3ccc(Cl)cc3)n2)cc1, the “activity change, negative = cytotoxicity” value is reported as inactive: -5.22%. In the case of Cc1ccc(CSC2=Nc3ccccc3C3=NC(CC(=O)NCc4cccs4)C(=O)N23)c(C)c1 (stereo not given), the “activity change, negative = cytotoxicity” value is reported as inactive: 5.35%. In the case of O=C(Nc1ccc2nc(SCCOc3ccccc3)sc2c1)c1ccccc1F, the “activity change, negative = cytotoxicity” value is reported as inactive: 17.4%. With CCOC(=O)c1c(C)c(-c2ccccc2)n(CC(=O)Nc2ccc(OCC)cc2)c1C the “activity change, negative = cytotoxicity” value was inactive: 8.69%. In the case of COc1ccc(-c2cn3c(n2)sc2cc(C(=O)Nc4cccc(SC)c4)ccc23)cc1, the “activity change, negative = cytotoxicity” value is reported as inactive: 13.5%. For COc1cccc2c1cc1c(=O)n(CC(=O)N3CCN(c4cccc(Cl)c4)CC3)nc(C)n12, the “activity change, negative = cytotoxicity” value was inactive: 13.2%. For COC(=O)C(CCSC)NC(=O)Cn1ncc2c([nH]c3ccccc32)c1=O (stereo not given), the “activity change, negative = cytotoxicity” value was inactive: 4.3%. In the case of COc1ccc(NC(=O)c2c(NCc3cccs3)sc3c2CCCC3)c(OC)c1, the “activity change, negative = cytotoxicity” value is reported as inactive: -1.38%. In the case of CCCOc1ccc(CNC(=O)c2ccc3c(c2)N(Cc2ccccc2)CCS3)cc1, the “activity change, negative = cytotoxicity” value is reported as inactive: -8.98%. For Cc1ccc(NC(=O)Nc2cccc(C)n2)cc1, the “activity change, negative = cytotoxicity” value was inactive: 1.27%. In the case of CCOc1ccc(C2CC(=O)NC(NC(=O)c3cccc(Cl)c3)=N2)cc1 (stereo not given), the “activity change, negative = cytotoxicity” value is reported as inactive: -30%. In the case of Cc1ccc(CCNC(=O)CN(c2cc(C)cc(C)c2)S(=O)(=O)c2c(C)noc2C)cc1, the “activity change, negative = cytotoxicity” value is reported as inactive: 1.21%. In the case of COc1ccccc1CNC(=O)CCCn1c(=O)c2ccccc2n(Cc2ccc(F)cc2)c1=O, the “activity change, negative = cytotoxicity” value is reported as inactive: -4.58%. With COc1ccccc1Nc1nc(-c2ccc(F)cc2)c2c(n1)-c1ccccc1OC2 the “activity change, negative = cytotoxicity” value was inactive: -4%. In the case of COc1cccc(-n2ccn(CC(=O)NCc3ccc(C)cc3)c(=O)c2=O)c1, the “activity change, negative = cytotoxicity” value is reported as inactive: -2.49%. For COc1ccc(N(CC(=O)N2CCN(c3ccccc3)CC2)S(=O)(=O)c2c(C)nn(C)c2C)cc1, the “activity change, negative = cytotoxicity” value was inactive: 1.01%. In the case of COc1ccc(-c2cc3nc(C)c(CCC(=O)NCc4ccccc4Cl)c(C)n3n2)c(OC)c1, the “activity change, negative = cytotoxicity” value is reported as inactive: -8.06%. In the case of Cc1ccc(Nc2ccc3cc(S(=O)(=O)N4CCCCC4)ccc3n2)cc1F, the “activity change, negative = cytotoxicity” value is reported as inactive: -18.4%. In the case of COc1ccc(C)cc1NC(=O)Cn1c(=O)oc2cc(S(=O)(=O)N3CCCCC3)ccc21, the “activity change, negative = cytotoxicity” value is reported as inactive: 8.99%. In the case of CCOC(=O)c1ccc(NC(=O)CSc2nc(-c3ccc(OC)cc3)cc(C(F)(F)F)c2C#N)cc1, the “activity change, negative = cytotoxicity” value is reported as inactive: 8.28%. With CCn1cc2nc(SCC(=O)Nc3ccc(OC)c(Cl)c3)n(Cc3ccc(OC)cc3)c(=O)c2n1 the “activity change, negative = cytotoxicity” value was inactive: 9.44%. In the case of N#Cc1nc(COc2ccccc2Cl)oc1NCCc1ccccc1, the “activity change, negative = cytotoxicity” value is reported as inactive: -3.19%. With CCc1cccc(C)c1NC(=O)C1CCN(S(=O)(=O)c2c(C)noc2/C=C/c2c(C)cc(C)cc2C)CC1 the “activity change, negative = cytotoxicity” value was inactive: 2.21%. For CCOc1ccc(NC(=O)NCCN2CCN(c3cccc(C)c3C)CC2)cc1, the “activity change, negative = cytotoxicity” value was inactive: -17%. In the case of CC(=O)c1ccc(NC(=O)c2cn(-c3ccccc3)nc2-c2ccc(Br)cc2)cc1, the “activity change, negative = cytotoxicity” value is reported as inactive: 13.5%. With O=C(CCC1CCCC1)N1CCc2c([nH]c3ccccc23)C1c1ccc(F)cc1 (stereo not given) the “activity change, negative = cytotoxicity” value was inactive: 6.01%. With COc1ccc(OC)c(NC(=O)Cn2c(=O)n(-c3cccc(C)c3)c(=O)c3c2c2cc(C)ccc2n3C)c1 the “activity change, negative = cytotoxicity” value was inactive: 9.53%. For Cc1ccc(NC(=O)c2c(NC(=O)c3ccc(F)cc3)sc3c2CCCC3)cc1C, the “activity change, negative = cytotoxicity” value was inactive: 20.5%. In the case of CCOc1ccc(-n2c(SCC(=O)Nc3cc(C)on3)nc3c([nH]c4ccccc43)c2=O)cc1, the “activity change, negative = cytotoxicity” value is reported as inactive: 1.88%. In the case of CCc1ccccc1N(C)C(=O)Cn1cnc2sc(C)c(S(=O)(=O)N3CCC(C)CC3)c2c1=O, the “activity change, negative = cytotoxicity” value is reported as inactive: -0.237%. With COc1cccc(CNC(=O)CCCn2nc(C)c3sc4ccccc4c3c2=O)c1 the “activity change, negative = cytotoxicity” value was inactive: 11.2%. For CCOC(=O)c1c(C)oc2nc(C)nc(N3CCN(c4cc(Cl)ccc4C)CC3)c12, the “activity change, negative = cytotoxicity” value was inactive: 18.6%. With CCOC(=O)c1cc(OC(=O)c2cc(OC)c(OC)c(OC)c2)n(-c2ccccc2)n1 the “activity change, negative = cytotoxicity” value was inactive: 6.82%. In the case of CCn1c(C(=O)Nc2c(C)cccc2C)cc2sc(Cl)cc21, the “activity change, negative = cytotoxicity” value is reported as inactive: -2.27%.
